Results are given in words; binding and its absence hold for the method and conditions named. Binding seen in cells or lysates may run through a third protein. Some entries that bind do so weakly or less than the wild type. Sequences can lack the tags named with a protein.
Assays:
Test in all cases: split reporter; protein complementation assay with Gaussia princeps luciferase fragments: Gluc1-LEDGF construct or PWWP domain and Gluc2-PIR co-expressed in 293T cells, luminescence of the lysate 24 h after transfection; normalized luminescence ratio (NLR), threshold 3.5
[1] = target: Gluc1-LEDGF PWWP domain (1-100) I42AF43A (UniProt O75475)
[2] = target: Gluc1-LEDGF 1-325 (UniProt O75475)
[3] = target: Gluc1-LEDGF PWWP domain (1-100) W21A (UniProt O75475)
[4] = target: Gluc1-LEDGF PWWP domain (1-100), WT (UniProt O75475)
[5] = target: Gluc1-LEDGF PWWP domain (1-100) K14AK16A (UniProt O75475)
[6] = target: HRP2 PWWP domain (aa 1-99), PCA fusion (human) (UniProt Q7Z4V5)
[7] = target: MSH6 PWWP domain (aa 86-198), PCA fusion (human) (UniProt P52701)
[8] = target: Gluc1-LEDGF PWWP domain (1-100) A51P (UniProt O75475)
[9] = target: Gluc1-LEDGF/p75 full length (UniProt O75475)
[10] = target: T1, NSD2 PWWP domain (aa 211-314), PCA fusion (human) (UniProt O96028)
T1 sequence: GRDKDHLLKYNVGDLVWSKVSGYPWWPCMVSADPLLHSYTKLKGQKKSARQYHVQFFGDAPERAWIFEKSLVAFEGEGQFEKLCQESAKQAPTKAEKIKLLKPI

Amino acid sequences for entries named in this document (tags omitted). A change or cut given only in a name is not applied to a line headed by its entry. Chains listed by the source or under a name are the forms on record and can include a tag or linker. Residues count along the entry.
UniProt O75475: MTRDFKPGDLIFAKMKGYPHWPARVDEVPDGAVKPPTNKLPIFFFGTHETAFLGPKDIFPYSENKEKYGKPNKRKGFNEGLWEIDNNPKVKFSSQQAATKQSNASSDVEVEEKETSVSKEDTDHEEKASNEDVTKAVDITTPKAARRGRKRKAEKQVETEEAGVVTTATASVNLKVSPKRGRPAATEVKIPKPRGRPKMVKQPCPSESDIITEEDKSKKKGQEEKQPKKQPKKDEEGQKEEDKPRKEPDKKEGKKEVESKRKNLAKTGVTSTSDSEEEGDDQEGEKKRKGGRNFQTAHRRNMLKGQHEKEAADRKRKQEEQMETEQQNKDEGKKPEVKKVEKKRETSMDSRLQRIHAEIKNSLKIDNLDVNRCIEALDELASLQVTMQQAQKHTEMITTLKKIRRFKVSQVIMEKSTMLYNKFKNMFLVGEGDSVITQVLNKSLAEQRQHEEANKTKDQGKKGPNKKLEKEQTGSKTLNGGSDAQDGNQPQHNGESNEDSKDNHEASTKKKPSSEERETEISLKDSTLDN
Gluc1-LEDGF 1-325: residues 1-325 of O75475
Gluc1-LEDGF 1-176: residues 1-176 of O75475
Gluc1-LEDGF PWWP domain (1-100), WT: residues 1-100 of O75475
Gluc1-LEDGF PWWP domain (1-100) I42AF43A (O75475, form named): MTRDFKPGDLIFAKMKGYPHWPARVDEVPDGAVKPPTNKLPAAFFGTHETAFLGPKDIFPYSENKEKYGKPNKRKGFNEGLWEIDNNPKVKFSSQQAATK
Gluc1-LEDGF PWWP domain (1-100) W21A (O75475, form named): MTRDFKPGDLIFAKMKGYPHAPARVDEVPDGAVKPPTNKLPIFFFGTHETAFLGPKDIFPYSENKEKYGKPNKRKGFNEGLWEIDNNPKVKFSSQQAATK
Gluc1-LEDGF PWWP domain (1-100) K14AK16A (O75475, form named): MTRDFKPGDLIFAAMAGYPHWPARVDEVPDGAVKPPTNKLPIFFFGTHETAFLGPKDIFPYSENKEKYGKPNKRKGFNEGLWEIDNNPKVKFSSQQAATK
Gluc1-LEDGF PWWP domain (1-100) A51P (O75475, form named): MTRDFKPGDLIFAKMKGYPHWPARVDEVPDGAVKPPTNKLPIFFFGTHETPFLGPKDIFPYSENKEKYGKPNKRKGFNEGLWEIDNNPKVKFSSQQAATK
UniProt Q7Z4V5, residues 1-99: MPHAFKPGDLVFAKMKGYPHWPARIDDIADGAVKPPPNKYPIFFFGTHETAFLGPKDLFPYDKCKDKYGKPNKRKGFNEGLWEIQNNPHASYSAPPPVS
UniProt P52701, residues 86-198: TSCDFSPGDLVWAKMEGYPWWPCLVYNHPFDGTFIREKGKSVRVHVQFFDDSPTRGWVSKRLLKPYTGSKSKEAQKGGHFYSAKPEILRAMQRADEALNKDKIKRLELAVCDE

[11] = target: Gluc1-LEDGF 1-176 (UniProt O75475)

B1: Gluc2-TOX4 PIR (domain or fragment, UniProt O94842 203-621)
chain: VEAGKKQKAPKKRKKKDPNEPQKPVSAYALFFRDTQAAIKGQNPNATFGEVSKIVASMWDSLGEEQKQVYKRKTEAAKKEYLKALAAYKDNQECQATVETVELDPAPPSQTPSPPPMATVDPASPAPASIEPPALSPSIVVNSTLSSYVANQASSGAGGQPNITKLIITKQMLPSSITMSQGGMVTVIPATVVTSRGLQLGQTSTATIQPSQQAQIVTRSVLQAAAAAAAAASMQLPPPRLQPPPLQQMPQPPTQQQVTILQQPPPLQAMQQPPPQKVRINLQQQPPPLQIKSVPLPTLKMQTTLVPPTVESSPERPMNNSPEAHTVEAPSPETICEMITDVVPEVESPSQMDVELVSGSPVALSPQPRCVRSGCENPPIVSKDWDNEYCSNECVVKHCRDVFLAWVASRNSNTVVFVK
In the case of B1, the binding [1] is reported as “no binding (tested: NLR threshold 3.5)”, the binding [2] is reported as “binds” and the binding [3] is reported as “no binding (tested: NLR threshold 3.5)”. For the same binder, the binding [4] was “binds”, the binding [5] was “no binding (tested: NLR threshold 3.5)” and the binding [6] was “binds”. For the same binder, the binding [7] was “no binding”, the binding [8] was “no binding (tested: NLR threshold 3.5)” and the binding [9] was “binds”. The binding [10] was “no binding” and the binding [11] was “binds”.

Reference: article PMC3842248
